Results taken from PubChem BioAssay AID1468 (National Center for Advancing Translational Sciences (NCATS), 2008).
Several values for one entry are separate records, joined by “and”; a condition that tells them apart may be missing. Equal values may be shown once. About 1,100 (0.39%) of roughly 280,000 compounds were called active. Inconclusive results, whose numbers are uncertain, are shown with a selection of clear calls. Calls come from the whole dose curve; as a rule, active = well fitted inhibition curve with a large enough effect; inconclusive = small, poorly fitted or top-dose-only effect, or effect the other way; inactive = flat fitted curve, though single readings scatter. A potency beside an inconclusive call is a rough fit, not a confirmed value.
Note: nearly all actives have a fitted effect of over 55% in size.
Potency is the fitted concentration of half-maximal effect; tags give direction and shape of the fitted curve.

The compounds below were run against Microtubule-associated protein tau (Homo sapiens) (UniProt P10636) (assay: qHTS for Inhibitors of Tau Fibril Formation, Fluorescence Polarization). Settings: K18 P301L tau heparin fibrillization, Alexa594 FP, 6 h; series mostly up to 57.7 µM.
UniProt P10636, sequence (P10636 whole entry, looked up): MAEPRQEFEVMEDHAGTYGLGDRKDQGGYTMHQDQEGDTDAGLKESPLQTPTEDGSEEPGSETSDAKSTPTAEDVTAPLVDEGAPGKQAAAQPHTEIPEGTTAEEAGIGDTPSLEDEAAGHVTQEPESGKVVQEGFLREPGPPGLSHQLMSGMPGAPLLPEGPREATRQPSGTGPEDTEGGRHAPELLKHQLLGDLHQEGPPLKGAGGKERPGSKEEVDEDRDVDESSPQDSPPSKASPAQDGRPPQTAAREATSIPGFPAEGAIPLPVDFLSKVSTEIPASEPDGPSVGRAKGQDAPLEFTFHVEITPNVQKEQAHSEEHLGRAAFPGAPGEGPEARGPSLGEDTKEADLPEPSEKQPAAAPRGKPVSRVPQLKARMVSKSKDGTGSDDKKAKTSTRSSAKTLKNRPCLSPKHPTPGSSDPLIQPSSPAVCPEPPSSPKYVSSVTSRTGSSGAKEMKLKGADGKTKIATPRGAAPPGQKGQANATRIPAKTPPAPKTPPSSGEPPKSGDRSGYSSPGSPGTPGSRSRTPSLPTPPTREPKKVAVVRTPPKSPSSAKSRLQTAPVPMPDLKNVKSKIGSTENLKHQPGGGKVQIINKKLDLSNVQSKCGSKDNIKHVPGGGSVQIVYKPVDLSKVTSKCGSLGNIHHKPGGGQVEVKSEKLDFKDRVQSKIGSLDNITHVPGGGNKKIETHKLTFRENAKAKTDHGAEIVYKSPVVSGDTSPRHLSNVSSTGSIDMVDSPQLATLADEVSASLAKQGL
Source text: NIH Molecular Libraries Probe Production Network [MLPCN]
NIH Chemical Genomics Center [NCGC]
Assay Provider: Carlo Ballatore, University of Pennsylvania
The microtubule-associated protein tau is an abundant protein in the axons of neurons that stabilizes microtubules. With its ability to modulate microtubule dynamics, tau contributes directly or indirectly, to key structural and regulatory cellular functions. Particularly important is the influence tau exerts on axonal transport, which allows signaling molecules, trophic factors and other essential cellular constituents to travel along the axons. Under pathological conditions, tau becomes sequestered into insoluble aggregates called neurofibrillary tangles. This phenomenon is believed to have pathological consequences by promoting axonal transport deficits that ultimately lead to synaptic dysfunction and neuronal loss. To identify inhibitors of tau aggregation, a heparin-induced tau fibril formation assay was used that employed a recombinantly expressed fragment of tau, K18 (Q242-E372), bearing a P301L mutation (Gustke et al. 1994; Hong et al. 1998).
Gustke, N., B. Trinczek, et al. (1994). "Domains of tau protein and interactions with microtubules." Biochemistry 33(32): 9511-22.
Hong, M., V. Zhukareva, et al. (1998).
Li, W. and V. M. Lee (2006). "Characterization of two VQIXXK motifs for tau fibrillization in vitro." Biochemistry 45(51): 15692-701.
von Bergen, M., S. Barghorn, et al. (2001). "Mutations of tau protein in frontotemporal dementia promote aggregation of paired helical filaments by enhancing local beta-structure." J Biol Chem 276(51): 48165-74.
NCGC Assay Protocol Summary:
For screening, 2 uL/well human K18 P301L (15 uM unlabeled and 0.24 uM Alexa 594-labeled tau final concentrations) in reagent buffer (100 mM sodium acetate pH 7) was dispensed into black solid 1536-well plates (Grenier) using a solenoid-based dispenser. Following transfer of 23 nL compound or DMSO vehicle by a pin tool, 2 uL/well heparin (20 uM final concentration) in reagent buffer was added and the plate centrifuged 15 s at 1000 RPM. Plates were incubated 6 hr at 37 C and then 1 uL/well ThT (30 uM final concentration) was added. After a 1 hr ambient incubation, the plates were read by an Envision (Perkin Elmer) to monitor Alexa 594 FP (555 nm excitation and 632 nm emission).
Keywords: NIH Roadmap, MLPCN, MLI, MLSMR, NCGC, qHTS, tau, tauopathies, Alzheimer's disease, fibril, neurodegeneration, aggregation
In the case of `Cc1ncc(CO)c(/C=N/NC(=O)c2cc3c(s2)CCCC3)c1O`, the Potency is reported as “inactive”. `CN(c1ccc(OCC(=O)OCC(=O)c2c(N)n(C)c(=O)n(C)c2=O)cc1)S(=O)(=O)c1ccc2ccccc2c1` was tested, and the Potency was inconclusive: 20 µM [inhibitor, partial curve]. In the case of `O=C(COC(=O)c1cccnc1Nc1ccccc1F)NCc1ccc2c(c1)OCO2`, the Potency is reported as inconclusive: 11.2 µM [inhibitor, partial curve, poor fit]. In the case of `Fc1ccc(-c2nc(Nc3cccc(C(F)(F)F)c3)nc3c2COc2ccccc2-3)cc1`, the Potency is reported as inconclusive: 17.8 µM [inhibitor, partial curve, poor fit]. For `COc1cc(OC)c(C2CC(=O)N3CN(c4ccccc4)CSC3=C2C#N)cc1OC` (stereo not given), the Potency was active: 35.5 µM. For `Nc1c(C=C2C=CC(=O)C=C2)c(=O)nc2snc(SCc3ccccc3)n12`, the Potency was inconclusive: 0.891 µM [inhibitor, full curve]. In the case of `CCc1ccc(S(=O)(=O)Nc2ccc(-c3nc4cccnc4s3)cc2)s1`, the Potency is reported as inconclusive: 28.2 µM [inhibitor, single point]. `CCOC(=O)c1sc(=S)n(C)c1NC(=O)c1ccc(OC)cc1` was tested, and the Potency was inconclusive: 31.6 µM [inhibitor, partial curve]. With `Cc1sc(NC(=O)/C=C/c2ccco2)c(C(=O)OC(C)C)c1C` the Potency was inconclusive: 12.6 µM [inhibitor, partial curve, poor fit]. In the case of `COc1cccc2c1C(=O)C=C(C)C2=O`, the Potency is reported as inconclusive: 17.8 µM [inhibitor, partial curve]. In the case of `Nc1nonc1-n1nnc(C(=O)N/N=C/c2cccc(Cl)c2)c1CSc1ccc(Cl)cc1`, the Potency is reported as inconclusive: 15.8 µM [inhibitor, partial curve]. `COc1cccc(NC(=O)Cn2c(=O)n(Cc3ccccc3)c(=O)c3ccccc32)c1` was tested, and the Potency was inconclusive: 39.8 µM [inhibitor, single point]. In the case of `Cc1cc(NS(=O)(=O)c2ccc(NC(=S)NC(=O)c3ccc(Cl)cc3Cl)cc2)no1`, the Potency is reported as “inactive”. With `CCN1C(=O)/C(=C\c2cn(CCC#N)nc2-c2ccc(F)cc2)SC1=S` the Potency was inconclusive: 28.2 µM [inhibitor, single point]. For `Cc1ccc(NC(=O)Cc2coc3ccc(C(C)C)cc23)cc1Cl`, the Potency was inconclusive: 10 µM [inhibitor, partial curve]. With `CCOC(=O)N1CCN(C(=O)c2cccc(NC3=NC4CS(=O)(=O)CC4S3)c2)CC1` (stereo not given) the Potency was “inactive”. With `Cc1cc(C)n2c(=S)[nH]nc2n1` the Potency was inconclusive: 35.5 µM [inhibitor, single point]. `Cc1coc2c1C(=O)C(=O)c1c-2ccc2c(C)cccc12` was tested, and the Potency was inconclusive: 14.1 µM [inhibitor, partial curve]. With `O=[N+]([O-])c1cccc(/C=N/Nc2cc(Cl)nc(-c3ccccc3)n2)c1` the Potency was inconclusive: 31.6 µM [inhibitor, single point]. With `COc1ccc(C(=O)Nc2cccc(-c3cnc4ccccc4n3)c2)cc1` the Potency was inconclusive: 28.2 µM [inhibitor, partial curve, poor fit]. In the case of `CCc1ccc(NS(=O)(=O)c2ccc3[nH]cc(C(=O)NCCCOC(C)C)c(=O)c3c2)cc1`, the Potency is reported as inconclusive: 2.82 µM [inhibitor, full curve]. `CCc1ccc(N2CC(C(=O)Nc3ccc(C)c(S(=O)(=O)N4CCOCC4)c3)CC2=O)cc1` (stereo not given) was tested, and the Potency was “inactive”. With `CC(C)NCC(O)COc1ccc(Br)cc1` (stereo not given) the Potency was inconclusive: 39.8 µM [inhibitor, single point]. In the case of `CCCCN(C)CCNC(=O)c1ccc(Cn2c(=O)[nH]c3cc(OC)c(OC)cc3c2=O)cc1`, the Potency is reported as inconclusive: 3.16 µM [inhibitor, partial curve, poor fit]. `O=C(Nn1c(C2CCCCC2)nc2ccccc2c1=O)c1ccc(Cl)c([N+](=O)[O-])c1` was tested, and the Potency was “inactive”. In the case of `COC(=O)CC1C(=O)NCCN1C(=O)CSc1nc2ccccc2s1` (stereo not given), the Potency is reported as inconclusive: 31.6 µM [inhibitor, partial curve]. `CCOc1ccc(-c2cn(S(=O)(=O)c3cccc4nsnc34)nc2N)cc1` was tested, and the Potency was inconclusive: 5.62 µM [activator, partial curve]. With `CCOC(=O)c1ccc(NC(=O)C2CC(=O)NC(=Nc3ccc(C)c(C)c3)S2)cc1` (stereo not given) the Potency was inconclusive: 14.1 µM [inhibitor, partial curve, poor fit]. `CCOc1ccc(NC(=O)c2ccc(CNc3c(N4CCCC4)c(=O)c3=O)cc2)cc1` was tested, and the Potency was “inactive”. For `C[C@@H](c1ccccc1)N1C(=O)[C@@H]2[C@H]3C(=CC[C@H]2C1=O)C(=O)[C@H]1O[C@H]1[C@H]3O`, the Potency was inconclusive: 4.47 µM [inhibitor, partial curve]. For `Cc1ccc(NCCC(=O)c2cccc([N+](=O)[O-])c2)cc1`, the Potency was inconclusive: 44.7 µM [activator, single point]. In the case of `CCCCCCCC/C=C\CCCCCCCC(=O)NCCc1ccc(O)c(O)c1`, the Potency is reported as “inactive and inconclusive: 10 µM [activator, partial curve]”. `O=C(COc1cccc(NC(=O)c2cccs2)c1)c1ccc(F)cc1` was tested, and the Potency was inconclusive: 25.1 µM [inhibitor, single point]. With `COc1ccc(-c2nc3ccccc3s2)cc1O` the Potency was “inactive”. For `COc1nn(CC(=O)N2N=C(C(F)F)CC2(O)C(F)F)cc1[N+](=O)[O-]` (stereo not given), the Potency was “inactive”. For `CC[n+]1ccc(/C=C/c2ccc(N(C)C)cc2)c2ccccc21`, the Potency was inconclusive: 11.2 µM [inhibitor, partial curve]. With `COc1ccc2[nH]c3c(N4CCN(Cc5ccc6c(c5)OCO6)CC4)ncnc3c2c1` the Potency was inconclusive: 20 µM [activator, partial curve, poor fit]. For `COc1cc(-c2nc(-c3ccc4c(c3)-c3ccccc3S4(=O)=O)c(-c3ccccc3)[nH]2)cc(OC)c1O`, the Potency was inconclusive: 2.51 µM [activator, full curve]. In the case of `Fc1cccc(/C=C2\CCCC3=C2NC(=S)NC3c2cccc(F)c2)c1` (stereo not given), the Potency is reported as “inactive”. With `O=C(c1cc(Cl)cc(Cl)c1)N1CCN(c2cc(C(F)(F)F)nc3ccccc23)CC1` the Potency was inconclusive: 7.94 µM [inhibitor, single point].
